# Experimental data: PubChem BioAssay AID463173 (ICCB-Longwood Screening Facility, Harvard Medical School, 2010)
# Among all 52,000 compounds or so, about 4,300 (8.3%) were called active. Cut-off read from the data, not from the text of the source: active = survival mostly below about 52% (no sharp cut-off); inactive = mostly above about 56%. Some of the results follow.
# System: DeltatarO mutant
# Assay: growth inhibition of S. aureus wild type versus tarO mutant, primary screen, teichoic acid synthesis inhibitors, RN4220, OD600 (AID 463173)
# Details: OD600, 18 h, active compounds read low, screened at 18.75 µg/mL (by protocol)
row,Structure (SMILES),survival
1,Cc1cccc(Nc2nc3nonc3nc2Nc2cccc(C)c2C)c1C,inactive: 66%
2,CC(C)CN(CC(C)C)c1nc(-c2ccc(Cl)cc2)nc2ccccc12,active: -1%
3,Cc1ccc(NCc2nnc(SCC(=O)N3c4ccccc4CCc4ccccc43)o2)c(C)c1,inactive: 120%
4,CCCC(c1nnnn1CC1CCCO1)N(Cc1cccs1)Cc1cc2ccc(C)c(C)c2[nH]c1=O (stereo not given),inactive: 71%
5,Cc1ccc(NC(=O)N2CC3CCCN3c3ccccc32)cc1C (stereo not given),active: -4%
6,COc1ccccc1CCNC(=O)C(=O)NCC(c1ccco1)S(=O)(=O)c1cccs1 (stereo not given),inactive: 81%
7,COc1ccc(C(=O)Nc2ccc(NC(=O)c3cccs3)cc2)cc1OC,inactive: 72%
8,Cc1cccc(C(=O)NCC(c2cccs2)S(=O)(=O)c2cccs2)c1 (stereo not given),inactive: 81%
9,CCOC(=O)c1c(C)[nH]c(C)c1S(=O)(=O)N1CCCC(C(=O)Nc2ncccc2C)C1 (stereo not given),inactive: 83%
10,Cc1oc(-c2ccc(C(=O)NCCC(C)C)cc2)nc1CS(=O)(=O)c1ccccc1,inactive: 102%
11,CC(C)CCn1c(=O)c2cccnc2n(CC(=O)Nc2ccccc2)c1=O,inactive: 72%
12,N#Cc1c[nH]n2c(NC3CCCC3)c(-c3cccc(Br)c3)nc12,inactive: 45%
13,COC(=O)c1sccc1S(=O)(=O)N(CC(=O)NCc1ccc(C)cc1)c1ccccc1,inactive: 84%
14,OC(C#CCN1CCOCC1)(c1ccccc1)c1ccccc1,inactive: 95%
15,CC1CCN(S(=O)(=O)c2ccc3c(c2)CCN3C(=O)Nc2cccc(Br)c2)CC1,inactive: 92%
16,Cc1ccc(S(=O)(=O)NC2(C(F)(F)F)NC(=O)N(c3ccc(F)cc3)C2=O)cc1 (stereo not given),inactive: 70%
17,CCOCCc1nn2c(=O)cc(COC(=O)c3ccccc3NC(=O)c3ccccc3F)nc2s1,inactive: 80%
18,CCOC(=O)c1ccc(CN(Cc2ccc(C)cc2)S(=O)(=O)c2ccc(F)c(C(=O)Nc3ccc(C)c(F)c3)c2)cc1,inactive: 70%
19,CCOc1ccc(C(=O)c2cn(CC(=O)Nc3ccc(OC)cc3)c3cc4c(cc3c2=O)OCO4)cc1,inactive: 69%
20,CC(=O)Oc1ccc(Nc2nc3nonc3nc2Nc2ccccc2)cc1,inactive: 83%
21,O=C(NCC(c1ccc2c(c1)OCO2)N1CCN(c2ccccc2)CC1)C(=O)Nc1ccc(F)cc1 (stereo not given),inactive: 76%
22,CCOC(=O)Cc1cc(C(=O)Nc2ccc(Br)cc2)sc1-c1ccc(C)cc1,inactive: 110%
23,Cc1cccc(C)c1NC(=O)Cn1c(=O)n(Cc2ccc(C(=O)NCc3ccco3)cc2)c(=O)c2sccc21,inactive: 59%
24,CCOCCCn1c(=N)c(C(=O)NC(C)c2ccccc2)cc2c(=O)n3cc(C)ccc3nc21 (stereo not given),inactive: 64%
25,Cc1ccn2c(NC(=O)c3cccc(Cl)c3)c(-c3ccccc3)nc2c1,inactive: 65%
26,CCCC(=O)N1CCc2cc(OC)c(OC)cc2C1COc1ccccc1OC (stereo not given),inactive: 49%
27,CCc1ccc(CNc2ncc(-c3cccc(OC)c3)n2C)cc1,active: 8%
28,CCCSc1ncc(Cl)c(C(=O)Nc2ccc(S(=O)(=O)N3CCCC(C)C3)cc2)n1 (stereo not given),inactive: 56%

row,Structure (SMILES),survival
1,CCc1nnc(SCc2nc(-c3ccccc3Cl)oc2C)c2cc3sc(C)cc3n12,inactive: 81%
2,O=C(Nc1nc2c(F)cccc2s1)c1ccc(S(=O)(=O)N2CCOCC2)cc1,inactive: 103%
3,COc1ccc2[nH]cc(CCNC(=O)Nc3ccccc3)c2c1,inactive: 86%
4,Cc1ccc(NC(=O)CN2C(=O)c3cccnc3Sc3ccccc32)cc1C,inactive: 83%
5,COc1ccc(CN(C(=O)c2ccccc2F)C2CCS(=O)(=O)C2)cc1 (stereo not given),inactive: 75%
6,O=C(NCC1CCCO1)C1CC(c2ccccc2O)=NO1 (stereo not given),inactive: 91%
7,Cc1cc(C)cc(OCC(=O)Nc2nonc2-c2ccc(Br)cc2)c1,inactive: 107%
8,Cc1ccc2c(Sc3ccc(Cl)cc3)c(C(=O)NCCC(C)C)[nH]c2c1,inactive: 80%
9,Cc1cccc(N2CCN(C(=O)c3ccc4nc(N5CCC(C)CC5)sc4c3)CC2)c1C,active: 1%
10,COc1ccc(CN(Cc2ccco2)C(=O)COc2ccc(Cl)cc2C)cc1,inactive: 71%
11,CCOC(=O)c1c(S(=O)(=O)N2CCCC(C(=O)NCc3ccc(F)cc3)C2)c(C)n(CC)c1C (stereo not given),inactive: 86%
12,Cc1ccc2c(c1)cc1c(=O)n(CC(=O)N(C)c3ccccc3)nc(C)n12,inactive: 129%
13,CC(=O)N1CCc2c(sc3c2c(=O)n(-c2cccc(Cl)c2C)c(=O)n3Cc2ccccc2C)C1,inactive: 61%
14,CCOC(=O)/C(C#N)=C\c1ccc(-c2cccc(C(F)(F)F)c2)o1,inactive: 84%
15,O=C(CCCCn1c(=O)[nH]c2ccsc2c1=O)N1CCN(c2cccc(C(F)(F)F)c2)CC1,inactive: 51%
16,COc1ccc(NC(=O)Cn2cc(S(=O)(=O)N3CCC(C)CC3)c3ccccc3c2=O)cc1Cl,inactive: 95%
17,COc1ccc2c(c1)c1c(c(=O)n(-c3ccc(C)cc3)c(=O)n1CC(=O)c1ccc(Cl)cc1)n2C,inactive: 81%
18,CN(C)C(=O)CSc1n[nH]c(-c2ccccc2)n1,inactive: 103%
19,Cc1ccc(C)c(CNS(=O)(=O)c2ccc3c(c2)C(C)(C)C(=O)N3C)c1,inactive: 84%
20,CC1CCN(S(=O)(=O)c2ccc3c(c2)N(CC(=O)NCCN(C)C)C(=O)CO3)CC1,inactive: 99%
21,Cc1ccccc1C(=O)Nc1cccc(OCc2cc(=O)n3c4c(sc3n2)CCCC4)c1,inactive: 101%
22,CCOc1ccc(NC(=O)c2ccc3[nH]c(C)cc(=O)c3c2)cc1,inactive: 79%
23,COc1cccc(CNS(=O)(=O)c2ccc3[nH]c4c(c3c2)CCCCC4)c1,inactive: 71%
24,Cc1ccc(C)c(N2CCN(C(=O)c3ccc(-c4nc(COc5ccccc5)c(C)o4)cc3)CC2)c1,inactive: 86%
25,COc1ccc2c(CNCCc3ccccc3C)c(C(=O)O)n(Cc3ccccc3C)c2c1,inactive: 85%
26,COc1ccc(CNC(=O)C2CCCN(S(=O)(=O)N(C)c3ccc(F)cc3)C2)cc1OC (stereo not given),inactive: 85%
27,O=C(OCc1cc(=O)n2nc(-c3cccs3)sc2n1)c1cccc(Cl)c1,inactive: 54%
